Among all 110,000 compounds or so, about 230 (0.21%) showed an effect of 50% or more. The list shows a part of the results.
The compounds below were run against DPAP1 (Plasmodium falciparum, UniProt Q8IIJ9) (assay: primary screen, percent inhibition; read by cleavage of a fluorogenic dipeptide substrate; higher = more effect of the substance).
Set-up: species or system P. falciparum D10 trophozoite lysates; single well
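Also: 30 min substrate incubation versus DMSO and 10 µM JCP410 controls.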

DPAP1, sequence (Q8IIJ9 whole entry, looked up): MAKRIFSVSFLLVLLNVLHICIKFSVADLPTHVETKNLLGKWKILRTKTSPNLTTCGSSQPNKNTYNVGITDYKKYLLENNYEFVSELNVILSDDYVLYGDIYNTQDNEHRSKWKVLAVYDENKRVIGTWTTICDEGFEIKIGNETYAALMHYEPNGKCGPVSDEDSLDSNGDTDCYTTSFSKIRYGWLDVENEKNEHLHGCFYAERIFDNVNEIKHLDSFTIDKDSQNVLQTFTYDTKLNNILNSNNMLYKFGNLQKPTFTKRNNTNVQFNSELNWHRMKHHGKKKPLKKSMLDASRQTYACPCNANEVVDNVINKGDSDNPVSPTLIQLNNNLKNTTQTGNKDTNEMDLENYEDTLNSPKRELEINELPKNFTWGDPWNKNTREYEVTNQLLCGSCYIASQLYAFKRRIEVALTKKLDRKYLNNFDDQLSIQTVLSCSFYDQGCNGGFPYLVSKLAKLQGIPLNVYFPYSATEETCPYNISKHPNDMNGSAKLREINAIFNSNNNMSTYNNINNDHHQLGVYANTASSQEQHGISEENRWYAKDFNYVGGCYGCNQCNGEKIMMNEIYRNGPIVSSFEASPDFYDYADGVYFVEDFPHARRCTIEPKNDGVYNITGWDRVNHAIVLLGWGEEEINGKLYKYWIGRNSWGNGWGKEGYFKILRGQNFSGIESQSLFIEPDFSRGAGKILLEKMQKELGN

Structure (SMILES)	% Inhibition @ 10 uM [%]
Cc1cccc(N(CC(=O)Nc2cccnc2)S(=O)(=O)c2ccccc2)c1C	0.98
CC(C)NC(=O)CN(c1ccc(F)cc1)S(=O)(=O)c1ccccc1	2.3
c1ccc(OCCCSCc2nc3ccccc3[nH]2)cc1	-0.0235
CCOC(=O)C1=C(N)Oc2cc(C)oc(=O)c2C1c1c(Cl)cccc1Cl (stereo not drawn)	-4.77
CCOC(=O)c1c(-c2ccc(OC)cc2)noc1C	2.39
Cc1ccc(Cn2c3ccccc3c3nnc(NCC4CCCO4)nc32)cc1 (stereo not drawn)	-6.32
O=C(Nc1ccc(Cl)c(Cl)c1)C(=O)NC1CCCC1	-1.75
CNS(=O)(=O)c1cn(CC(=O)NC2CCC(C)CC2)cc1S(=O)(=O)NC (stereo not drawn)	-7.47
COc1ccccc1NC(=O)c1cccc(Br)c1	-0.216
O=C1c2ccc(Oc3ccc4c(c3)C(=O)N(c3cccnc3)C4=O)cc2C(=O)N1c1cccnc1	-4.74
COc1ccccc1Nc1nc(N)nc(CSc2nc(C)cc(C)n2)n1	-4.52
O=C(CSCc1c(Cl)cccc1Cl)Nc1ccc2c(c1)C(=O)NC2=O	-0.864
COc1ccc(C2(C#N)CCc3[nH]c4ccccc4c3C2)cc1OC (stereo not drawn)	0.774
CC1=C(C(=O)Nc2ncccc2C)C(c2cnn(C)c2C)C2=C(O)CC(c3ccccc3)CC2=N1 (stereo not drawn)	0.851
CCC(C)NC(=O)C1CCCN(S(=O)(=O)c2ccc(C)cc2)C1 (stereo not drawn)	2.05
Cc1nn(CC(=O)NC2CCCc3ccccc32)c(=O)c2cc3sccc3n12 (stereo not drawn)	0.137
Cc1c(C)n(C)c2ccc(C(=O)NCCN3CCC(Cc4ccccc4)CC3)cc12	0.747
COc1ccccc1OCC(=O)Nc1cc(Cl)c(Cl)cc1Cl	-3.33
CC1CCCN(S(=O)(=O)c2csc(C(N)=O)c2)C1 (stereo not drawn)	3.28
Cc1cccn2c(=O)c3cc(C(=O)N(C)C4CCCCC4)n(C)c3nc12	2.03
O=C(C(Cc1ccccc1)n1cccc1)N1CCN(C2CCCCC2)CC1 (stereo not drawn)	2.6
COc1cccc(-c2nc(CS(=O)(=O)CC(=O)N3CCOCC3)c(C)o2)c1	-1.89
O=C(COCc1cc(-c2ccc(F)cc2)on1)NCCCc1ccccc1	-2.41
COc1ccc(CN2C(=O)c3cccnc3C2=O)cc1S(=O)(=O)NCCC1=CCCCC1	-2.54
Cc1ccc(Cn2c(C)c3cnn(CC(=O)NCCCN(C)C4CCCCC4)c(=O)c3c2C)cc1	-2.17

Structure (SMILES)	% Inhibition @ 10 uM [%]
COc1ccc(N(C(=O)c2ccccc2O)C(C)C2CC2)cc1 (stereo not drawn)	1.21
CCc1c(O)cc2n(c1=O)-c1ccccc1C2(C)C	0.658
CCOC(=O)/C(C#N)=C/c1c(Oc2cc(C)cc(C)c2)nc2c(C)cccn2c1=O	-1.65
CCSc1ccc(NC(=O)c2cccnc2)cc1	0.992
Cc1ccc(SCC(=O)Nc2ccccc2Cl)cc1	1.35
Cc1nc(N)sc1-c1csc(Nc2ncccn2)n1	4.22
Cc1ccc(C)c(NC(=O)CN(C2CCCCC2)S(C)(=O)=O)c1	-6.05
CNC(=S)N(Cc1ccccc1)CC1CC=CCC1 (stereo not drawn)	0.343
Clc1cccc(CN2CCN(C/C=C/c3ccccc3)CC2)c1	2.33
CCN1C(=O)/C(=C\c2ccc(C(=O)O)cc2)S/C1=N\c1ccccc1	0.793
C/C(=C\c1ccccc1)CN1CC(C)OC(C)C1 (stereo not drawn)	-6
Cc1c(=O)n(OCc2ccccc2)c2ccccc2[n+]1[O-]	4.11
CCCCN(C)C(=O)C1CCN(c2nn3cc(-c4ccc(C)cc4)nc3s2)CC1	2.97
COc1ccc(C2(CNC(=O)c3ccc(Br)cc3)CCOCC2)cc1	3.15
CN(Cc1ccccc1)C(=O)CN(c1ccc(F)cc1)S(=O)(=O)c1ccc2c(c1)OCCO2	-9.2
COc1ccc(CNC(=O)CCC(=O)Nc2nc(-c3cc4ccccc4oc3=O)cs2)cc1	0.569
C=CCN1C(=O)C2(Nc3ccccc3C(=O)N2c2ccccc2)c2ccccc21 (stereo not drawn)	-1.28
COc1ccc(NC(=O)c2cc(C#N)c3ccccn23)cc1	-4.76
Cc1ccc(N2C(=O)NC(=O)/C(=C/Nc3cccc(O)c3)C2=O)cc1	-2.46
COc1ccc(C2CC3=Nc4ccccc4N(C(=O)C4CC4)C(c4cccnc4)C3=C(O)C2)cc1OC (stereo not drawn)	-2.16
CN(C=O)CP(=O)(O)CN1CCOCC1	2.09
CCc1ccc(S(=O)(=O)Nc2ccc3oc(=O)sc3c2)cc1	-10.2
Cn1c(CNc2ccccc2)cc(=O)n(C)c1=O	6.6
CC(=O)C1=C(O)C(=O)N(c2ccccn2)C1c1ccc(C)cc1 (stereo not drawn)	0.161
COc1ccc(-c2noc(CC(=O)NCCN3CCOCC3)n2)cc1	-0.256

Structure (SMILES)	% Inhibition @ 10 uM [%]
COc1ccc(C(=O)Nc2ccc(C(C)C)cc2)cc1	-1.46
CC(C)c1ccc(C(=O)Nc2nnc(S(=O)(=O)N3CCOCC3)s2)cc1	-1.72
CCc1cc2c(cc3c(=O)n(CC(=O)NCc4cccnc4)ncn32)s1	1.68
Cc1cccc(NS(=O)(=O)c2ccc3ccccc3c2)c1C	5.29
COc1ccc2c(c1OC)C(=O)N1C(C(=O)O)Cc3c([nH]c4ccccc34)C21 (stereo not drawn)	1.29
O=C(Nc1nc(-c2ccc(-c3ccccc3)cc2)cs1)C1CC1	6.52
CCCNC(=O)c1c(NC(=O)c2ccc(C)cc2)sc2c1CCC(C)C2 (stereo not drawn)	0.343
O=C(Nc1nnc(S(=O)(=O)N2CCCCCC2)s1)c1cccc2ccccc12	4.86
CCOC(=O)C1=C(C)N=C2SCC(=O)N2C1c1ccc(Cl)cc1 (stereo not drawn)	-1.15
CCOC(=O)c1oc2ccc(C=O)c(Cl)c2c1C	-4.02
CCN1CCN(c2nc3ccccc3n3cnnc23)CC1	-0.692
Cn1c(CNC(c2ccccc2)c2ccccc2)nc2ccccc21	3.32
CSc1ccccc1Sc1cc(C(=O)NCC2CCCO2)c2ccccc2n1 (stereo not drawn)	10.6
O=C1NC(=O)C(=C/C=C/c2ccco2)C(=O)N1	1.29
CS(=O)(=O)N(CC(=O)Nc1cccc(Cl)c1)c1ccc(Cl)cc1	1.92
Cc1ccc(CNC(=O)c2cncc(NS(=O)(=O)c3ccc(Cl)cc3)c2)cc1	5.38
O=C(O)c1c(CNCc2cccc(Br)c2)c2ccccc2n1Cc1ccccc1F	-3.46
Cc1ccc(-c2c(NCc3ccccc3Cl)c(=O)c2=O)cc1	-0.825
Cc1ccc(-n2nnnc2SCC(=O)NCc2cccc(C(=O)O)c2)c(C)c1	-0.0735
CCOC(=O)c1nnc(-c2ccc(CN3CCc4ccccc4C3)cc2)o1	-0.0709
CC12CN3CC(c4ccccc4)(CN(C1)C3C(O)C(O)C(O)CO)C2=O (stereo not drawn)	2.31
CSc1nc(-c2ccccc2)nn1S(=O)(=O)c1ccc(C)cc1	0.722
COc1ccc(CN2CCN(Cc3cc(OC)c(OC)cc3OC)CC2)cc1	3.86
COc1ccc(C=C2C(=O)OC3(CCCCC3)OC2=O)cc1O	-5.08
CCc1cccc(NC(=O)CCCC(=O)O)c1	-0.68

Structure (SMILES)	% Inhibition @ 10 uM [%]
COc1ccc(O)c(CN2C[C@@H]3C[C@H](C2)c2cccc(=O)n2C3)c1	3.15
COc1ccc(OC)c(C2C(C#N)=C(N)Oc3[nH]nc(-c4cccc5ccccc45)c32)c1 (stereo not drawn)	-4.65
Cc1ccc(N2C(=O)NC(=O)/C(=C/Nc3cc(Cl)ccc3O)C2=O)cc1	-6.35
Brc1ccc(CN2CCc3c([nH]c4ccccc34)C2)o1	-0.473
Cc1ccc(-c2nc(-c3cc4ccccc4oc3=O)sc2C)cc1	-5.5
CCN1N=C(c2ccccc2)C(c2ccco2)NC1=O (stereo not drawn)	12.2
COc1ccc(C(=O)c2c(/C=C(\C)N(C)C)oc3ccc(OC)cc23)cc1	1.34
O=C(c1ccccc1C(=O)N1CCN(Cc2ccccc2)CC1)N1CCN(Cc2ccccc2)CC1	5.42
O=C(NCCN1CCOCC1)c1ccc(CS(=O)(=O)Cc2ccccc2F)o1	3.93
CN1CCN(CC(O)c2ccc(C3CCCC3)cc2)CC1 (stereo not drawn)	-5.1
COc1cc(C2C3=C(CC(C)(C)CC3=O)OC3=C2C(=O)CC(C)(C)C3)ccc1OCC(=O)O	-1.26
CSCc1nnc(NC(=O)c2ccc(S(=O)(=O)N3CCCCC3C)cc2)o1 (stereo not drawn)	-8.38
COc1ccc(-n2ncc3c2ncn2nc(COc4c(C)cccc4C)nc32)cc1	-4.64
Brc1ccc(CNCc2cccnc2)cc1	2.46
O=C(Nc1cccc2c(NC(=O)c3ccco3)cccc12)c1ccco1	-0.759
COc1ccc2c(CNCCc3cccs3)c(C(=O)O)n(Cc3ccccc3F)c2c1	1.17
Cc1nnc(N2CCCC2)c2c1nnn2Cc1ccc(F)cc1	-1.71
CCN(CC)C(=O)Cn1c(=O)cc(C(F)(F)F)c2c(C)nn(C)c21	-5.33
Cc1nc2cc(Cc3ccc4[nH]c(C)nc4c3)ccc2[nH]1	5.5
COc1ccc(-n2c(C)ccc2C)cc1N	-8.85
O=C(CN1C(=O)S/C(=C\c2ccc3c(c2)OCO3)C1=O)c1ccccc1	6.63
COc1ccccc1CNC(=O)Cn1ncc2c3ccccc3n(Cc3cccc(Cl)c3)c2c1=O	-3.35
O=C(COc1ccc(NC2=NS(=O)(=O)c3ccccc32)cc1)N1CCOCC1	0.475
COc1ccc(CCNC(=O)CN(C2CCCCC2)S(C)(=O)=O)cc1	2.13
